Reference: paper PMC10726135
This is one part of the list. At the low end of the ranking, values are background and their order means little. Measured with an extract: partners may take part in the binding.

target: T1, HNF4alpha2 (COS-7 nuclear extract) (UniProt P41235); test: protein-binding microarray; settings: COS-7 nuclear extract on double-stranded Agilent 4x180k PBM; binding buffer, salt, pH and temperature not given; high values mean tight binding; double strand, one strand shown; sequences stand for … in …GCCTAGGGAGATTAGAGTATCGGTCGA
T1 sequence: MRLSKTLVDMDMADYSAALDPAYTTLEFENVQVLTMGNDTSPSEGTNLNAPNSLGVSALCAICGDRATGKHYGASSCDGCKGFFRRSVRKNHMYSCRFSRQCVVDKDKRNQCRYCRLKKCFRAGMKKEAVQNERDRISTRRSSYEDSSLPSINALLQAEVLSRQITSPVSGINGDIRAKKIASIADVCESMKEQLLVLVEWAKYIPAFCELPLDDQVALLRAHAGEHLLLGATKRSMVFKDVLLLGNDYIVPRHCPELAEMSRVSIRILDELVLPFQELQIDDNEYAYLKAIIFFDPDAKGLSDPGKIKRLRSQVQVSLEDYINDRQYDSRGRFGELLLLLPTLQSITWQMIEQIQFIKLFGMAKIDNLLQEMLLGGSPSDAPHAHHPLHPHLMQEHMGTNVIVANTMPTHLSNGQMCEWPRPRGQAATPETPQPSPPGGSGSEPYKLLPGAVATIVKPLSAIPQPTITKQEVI

Sequence | binding signal (log2 normalized intensity)
CTCGGGGAGCTGTGGGCCTCACACCCTCTA | -1.22
CATGGACTTTGAACCAAGATATGCTAACAT | 4.81
TCTTATCACCATCCCTGTTGCCTCATCTGA | 0.899
AGTGACTCAGAGCATATGTTGACCCGAGTG | 3.17
GCTGACCTACATTCCACCCTCATTTGCTTG | 0.587
AGCATCACCAGTGCAGCTGACCTACATTCC | -0.443
TCACTGTAACCTTTGCCCCCCAAGTTGAAG | 6.72
GCCTTATCACCATTCAGATAAATGGTGTAG | -1.21
TAAATGCCTCCCCCTCTTTATCTCCTGGAA | 2.73
CTGAGTCTGATAAGGAAGATAATGGGTCCG | 1.01
CAGAGGTTTCGCAAGGACGTGACCTTTATG | 4.35
CACACTGTACCCGTCCACCTTTGGATCCAG | 2.76
CTATTCTCAGTGATATAAAACCTTTTTCTG | 0.697
TGACCTTTAGCCTGGCCATTTCTCAGGTTG | 3.69
TCCACTGAAAATGCCAAGTTTCAGGCTATG | -0.635
TAACGCCCGCCTAACCTTGAGGAGCCCTAT | -1.21
TTTGTCCCCCACCTGTGAAGATAAGCTGTC | 3.24
GAAAGTGAGGCCTGGCCGAGGTTGCCCAGC | -0.404
GCATCCTTCTCCTCCCCTCCCCCCAGTTCC | 5.71
AAATGAAAACACAGCTCACCACCTAGTAAA | -1.01
ACTGGCTAAATCCCACCAAAGCCATGAGGC | 0.562
GAAACTGTTTCCAATAGGTTTGATTTCAGC | -1.07
CCTCTAACTATGCAGTGTCCATGGTGACCA | 1.56
AATGACTTGCCCAAGGGCATGGGAAGCAGT | -1.06
GCTGAACCTAGAGCTTCAGACGCCCTATGG | -1.19

Sequence | binding signal (log2 normalized intensity)
GTGCTCTCAGATAAGAGATGAGGAACTTGT | -0.0712
GAATCTCAGGAGTGATGCCAGAAGATTAGT | -0.634
CTGTTTCAAAACTACAAAGTGGTTTTCTTG | 1
CAAGTACCCTTTATCCCTCACAATCTTAAG | 1.31
TACTCTCATCACTTAGGATATTCCAAGGGG | -0.378
TACCAAAGACTGAGCAGCTGGAGGGGGACT | -1.12
CTTTTGCTGACATGCTCTTGGAATGTTGAA | 1.09
GGAACGCGCGGGCAGGTTGCCCTTTCGGTG | 3.35
CACACCGAGCACGGTGCAGGGAGGATATCC | -1.16
GGCAGCTTCAGGATGAAGGCTGCTGCCTGA | -1.1
TTTGAAGAAGACAAAACAGCGTACTGTGCT | -1.2
AGGTCACTCTTGCTAAGCTTTAGCAAAGAA | -0.626
TCCTCCAGCCCTCCTCTCTGTAGTCCTCAG | 1.07
GTAGGAGGAGATTGATGGTTTTATCAGCTG | -1.16
AAATCTTCTTTAAGCTATGTGGTGGAATGG | 2.23
TACTCAGCTAATCTAGAGACACTATGTGCA | -0.721
CCAAGGCTTCCAATCCTGGAGAAGGAGCAC | -1.11
TGGATCGGGATGATCAATGTGTAGTTTCAC | 1.04
TTCCACCTCCCTCCATGCTGTAGATTGTGG | 1.52
TAGTCAGATTCCTCTGAGTCCTCTTCCCAA | -0.656
TATGGACAATGAAATTCAGGCTGAGGTGCT | -1.18
CAGATAATTACCTGGACTCTAGAGCCAGAC | 0.764
CAAATGATCAAAGGTCGGTTTTAGGACAAC | 4.69
CTTTGCCCCAGAGGAAGACATCATATTTGT | 1.28
GTCCAAAGGTAAAAACTGGCTCTTATTTTT | 0.264

Sequence | binding signal (log2 normalized intensity)
AGGCCGGAGGTCTGGAATGTGGAGAATGGC | -1.22
TCTCTCCTGGTTTGGGGCCTAAATGCTTCT | 0.749
ATTTGTGATCTGGCACAAATTCTAGATTCA | -1.08
AAACACCTAGAGTTACAGTCACTCCCTATC | -1.12
AACCTGTTGGGTCAGGCTGCTCAGCTGCCT | -1.15
CCAGCCTGGCCTCTAGAGTGGTTGCCTGTG | -0.807
CAGTCGATCTTTGACCGCTGCCTCCCACCC | 3.94
TTTGAAAGAAAGAGACCTTTACCCTGACCT | 3.55
TTCATTAAAAAAAAAAAAAAATACTCCTAT | -1.07
GGGACTGCAAGTACGATTGGCTGGACATCT | -1.06
GTACCAAAATCACACTGGGAATTGGGATGG | -1.08
TACCATGTCCTGTGATTAAGGTCAATGGGA | 2.07
TGGGGTACTTGAACCCTACTCATAATTGCT | -0.0331
CAGTTCAAAAGTTCAAAGATATGATGGCCA | 1.79
ATCCACAAAGATAAGAAAAAAACAGCACAA | -1.03
AACCCAAGGCCAAACACGGACAGGCAGGCC | -1.14
TTGACCTCTCTCTCCTAACTATGGTCACGC | 2.37
CTGCACTGACCTTTACCCATTCCTTAGTGC | 4.37
CATCCATATCATTAGTCTCTGCTGGCTTTC | 0.888
TTAGTTTCTTTACCATGTGTTGGCACTTTG | 1.43
ACTTAGCTCTTTAGGAATGCAACTCTAACC | -1.06
ACACTGGGCTAGAGGTCTTAATCTTTTTAC | 0.69
CGCAGCCGCGCTCCGCCCCGTTCCCGGCAG | -1.17
GGCCAAGGGATTTCAGTGCCCTCATAAGAG | -1.05
AATTAGCTTGAGCGAGACAGCGGGTGTTTC | -1.12

Sequence | binding signal (log2 normalized intensity)
TCAGCAGTTGTTCAAAGTCCATGTGTTAAA | 4.35
AATAGGGTGACAGTATCAAAGTCCCCAGAT | 2.12
GAATATTTAAGATTCCAGCTCTCGGATCCT | -1.17
ACATGATGTCAGTTTGACTCCAAAGGGCTG | -0.999
GATATTTTTCAGACCTTGCATTCTGAGGAA | -1.02
GTCCAAAGTCTTTGTTCCTAGCCACCATGC | 0.798
ATCCTCATTGTGTGCAGACCTTCTCTGGCC | 1.23
TAAAACTGCAGATTGACTCAGGCATTCTGA | -0.529
ATTCTAGAGGTCAGAAGTCCAAAATCAGTC | 3.83
GGCTTCGTCCCTGGGGCCCCACTGGGGTGG | -0.964
TATTAAATGGAATACTTGCCTAAGGTCAAT | 1.44
TCTGCCCCCTACACAGAGGAGCGACCCAGG | 2.83
CTTGGTATCAGCTTTGAGACACCTGGCCAA | -0.971
AGAGGCCAATTTCTTGTCTGGTCCGAAGGT | 1.56
CTTATCTACTTTAAGATTTGACCCTTGGCC | 7.08
GGGAATTCAAGGAATGCAGCTCAGACTGCT | -1.22
GCATGGTGCTTCGCACTTCAGCACCATAAA | 0.242
TTTTAGAATTAACTAAAAGTATCTAAGGGC | -1.06
TTGCCTCATGTTTGCAGAATGGCTGATGTA | 1.73
ATTCCGGCCGTATCAGAAGAACTGCACTGT | -0.304
AAAGGCAACATCTTGAGCCAGGAATGCAAG | -1.11
AGGCTCAGAGGTCAAGTCACTGCTCAAAAA | 0.902
GACTCCTCCCTCAGCCTGAACCTCTGTCTC | 0.818
GCCATCTGGTGGACTTTGCTCTGCTCATTT | 6.26
TAGCAACCAAGTACCGCAAACAAGGTGGCT | -1.08

Sequence | binding signal (log2 normalized intensity)
ACTTTGTAGCTCAAACAGTCTAAAAACCAT | -1.17
ACTTTGACTTCCATTGTGTTGCAGATGATC | 1.63
TTGGTACCTCCCCCCACACCATTAGAGAAC | 5.39
CTTTGAGAAAGCAAAGTCCCTGGGGACAGG | -0.0595
GGAATGAATCAGAATTTGGAGAATTCAGAC | -1.09
CTGGATTCTCAAACCTTCCAAAGTTCAACC | 3.18
ACACACACACACACACACATTGCAGTATGC | -1.13
CTCCCCCACCACTGCTTCCTGCCCCCTGTG | 5.91
TCATGTTCAATATACAGTTGGTATTTAGTA | 1.83
GCCCTACAGCTCCTGAGTCCACATGAGCCT | -0.819
AGCAAAAAGTTTGGACTAGCCACAGGGGAA | -1.12
AACAGCCCCATGAGATAGGTACTATTATTA | -0.144
CTGGCCATGCCCCAGATGCCCAGCAGAGGG | -0.881
CCCTAATTACATATTAACCTTTGCCCCAGC | 6.63
AGCAAACAATGATGAAAGGAGCTTGGGAAG | -1.18
GTTTCACCCTGAGGAATCCCATTCCCTCTA | -0.941
CTGGGCAGATAACAGCGAACATGAGGAATA | -0.76
AAGAGATAAAAGAGAAGATAATGGATTGGG | -0.492
GTGAGGTCACAGTATTCATTCCCCTAGTAT | 2.55
AGCAGGACACCAAACAGACCTCCCCCAACT | 3.87
GGACACAAAGAGTTCAGAGAGGGATTAAAG | -1.14
